This note sets out measurements from article PMC12136788.

First the molecules themselves.
B1: chr2:27243795:27243896:+|3pUTR|ENSG00000084774|unk|total|mutant (ssRNA)
RNA: GGGAGUUCUACAGUCCGACGAUCACUUAAUAAACAGCCGAGCUGUCCCUUGAUGCUGAGUGCCGCCGAACAGAGCUUUCUUUCCGAAAAUUGAGCAGAUUCCCAAAUUAUAAGAGCAGCCUCACCAGGCAGGGCUCUGGCCCGCAACAGAGGAUUGAGCAUCA
B2: chr4:186619803:186619904:-|CDS|ENSG00000083857|msi1|total|mutant (ssRNA)
RNA: GGGAGUUCUACAGUCCGACGAUCAGACGGAGACCCUUUCAGCCAGUUCACUAUUAACUUCAAUACUGGAGUUAUCAAUGUCACCGCUCCUCUGGACUUUGAGGCCCACCCGGCAUAUAAGCUGAGCAUACGCGCAACUGACUCCAACAGAGGAUUGAGCAUCA
B3: ENSG00000107863:be:win_2751|CDS|ENSG00000107863|bound_else_gene|NA|bound_elsewhere_windowed (ssRNA)
RNA: GGGAGUUCUACAGUCCGACGAUCCUCUGGGUCCAGAAAAGAUUCUUCCUCAGAGGUCUUCAGUGAUGCUGCCAAGGAAGGGUGGCUUCAUUUCCGACCCCUUGUCACCGAUAAGGGCAAGCGAGUUGGUGGAAGUAUUCGGCCCAACAGAGGAUUGAGCAUCA
B4: chr7:101138022:101138407:+|3pUTR|ENSG00000106366|msi1|total|mutant (ssRNA)
RNA: GGGAGUUCUACAGUCCGACGAUCCUCUUGGUGGGGAGGGGUGUACCUAAAUAUUUAUCAUAUCCUUGCCCUUGAGUGCUUGUCCGAGAGAAAGAGAACUACUAAGGAAAAUAAUAUUAUUUAAACUCGCUCCCCGUGUUUCUUCAACAGAGGAUUGAGCAUCA
B5: chr7:94537565:94537673:+|CDS|ENSG00000127995|unk|total|mutant (ssRNA)
RNA: GGGAGUUCUACAGUCCGACGAUCGAAGCCUGCCGAUGGGUCCUGUUGUCAACCUCGGCCUCCUGUUACUCUCAUACAGAAGCCCGCUGCUUGUUUUUUCACUUUAUCUAUUAUCGGAUAUUUAAUUUUUUACAUAAUUCAUCGCAACAGAGGAUUGAGCAUCA
B6: ENSG00000185219:stop:overlap|stop_codon|ENSG00000185219|stop_codon|NA|stop_codon (ssRNA)
RNA: GGGAGUUCUACAGUCCGACGAUCGAAAGACCUUCAGGUGGUCUUCGAACCUGGCUCGGCAUAUGAAAAACCAUAUUAGAGAUUAGCCUGGGACCUGACAGUGACAGUGGGGGUGGGUUCUCAGUCCCCUGCUAGAGAACCCUUCAACAGAGGAUUGAGCAUCA
B7: ENSG00000178764:stop:overlap|stop_codon|ENSG00000178764|stop_codon|NA|stop_codon (ssRNA)
RNA: GGGAGUUCUACAGUCCGACGAUCGUGUGUCGGAACUGGCUGAAUCAGACUCCGACUGCGUCCCUGCAGAGGCUGGCCAGGCCUAGACAGGGAAGUCUGUUAGAACUGCUGUGCUGAUCAACGGGACGCUCCGUCUUUGAAGAACAACAGAGGAUUGAGCAUCA
B8: chr2:223959526:223959698:+|CDS|ENSG00000135900|unk|total|mutant (ssRNA)
RNA: GGGAGUUCUACAGUCCGACGAUCCUGGGAUUACCAUGCAGAAAUACAAGCUUUUGGACAUCGGUUACAGGAAAACUUUUCCUCCGAUCUUCUCAAAACUGCAUUUGUUAACCGCUGCUAUAUUAAAAGUGAGGAGGCCAAACGCAACAGAGGAUUGAGCAUCA
B9: chr14:53043751:53043854:-|3pUTR|ENSG00000100523|unk|total|mutant (ssRNA)
RNA: GGGAGUUCUACAGUCCGACGAUCACUCCGAUUAAAUCUUGCUUUAUUUUUACUUUAAAAUCCGUCUUGCUAAGGCCUUAUGUCCGUUCAUACUUUCUUUUCAACAGUAAUCUUGUUUAUAAUCCAGUGUUUCUGUGUUUCCGGCAACAGAGGAUUGAGCAUCA
B10: chr12:103267852:103268962:-|three_prime_utr|ENSG00000179088|control|control|control (ssRNA)
RNA: GGGAGUUCUACAGUCCGACGAUCUCCUGCACCUGCCUUCUUGAAAGAAAACAAGACAUCAGAUACUUAUUCAAAUAAUGGAAUAGCUGAUCAACUGGGUCUCCACACAAAAGAGAGUUAUCCAUGAUAAAAGAACAACUUUUUCAACAGAGGAUUGAGCAUCA
B11: chr5:157463210:157463311:+|CDS|ENSG00000172548|unk|FALSE|unique (ssRNA)
RNA: GGGAGUUCUACAGUCCGACGAUCCAGGAAAGAAUCAGGCAGAACUAUGGCUUCUACAUCGGCCUGGGCCUGGCAUUCCUGUCUAGCUUCCUCAUCGGCAGCAGCGUCAUCCUCAAGAAGAAAGGCCUCUUGCGACUCGUGGCCCAACAGAGGAUUGAGCAUCA
B12: chr9:19276226:19276327:+|CDS|ENSG00000137145|unk|total|mutant (ssRNA)
RNA: GGGAGUUCUACAGUCCGACGAUCCUUUGUCGCCGCUGGUCUCACUGACACAUCUACUCUUUUGGAUCAAGAAAUAAAUCGUUCCGAUACUAAGUCAACUGGACCUAAAGCUCCAAUUACAGACAUUGCCAUUAUUAUCAAAUCCAACAGAGGAUUGAGCAUCA
B13: chr21:26917921:26924620:-|three_prime_utr|ENSG00000154736|control|control|control (ssRNA)
RNA: GGGAGUUCUACAGUCCGACGAUCAGGAUUCCUGAAGGGGCAACCCACAUAAAAGUUCGACAGUUCAAAGCCAAAGACCAGACUAGAUUCACUGCCUAUUUAGCCCUGAAAAAGAAAAACGGUGAGUACCUUAUCAAUGGAAAGCAACAGAGGAUUGAGCAUCA
B14: ENSG00000107863:be:win_2451|CDS|ENSG00000107863|bound_else_gene|NA|bound_elsewhere_windowed (ssRNA)
RNA: GGGAGUUCUACAGUCCGACGAUCUGAUAUUGCACAUAUCCCUGCCUCUGCUGUUAUAUCAGCCUCUACCUCUCAGGUCCCCUCCAUAGCAACAGUUCCUCCUUGCCUCACAACUUCAGCUCCAUUAAUUCGCCGUCAGCUCUCCAACAGAGGAUUGAGCAUCA
B15: ENSG00000107863:be:win_2651|CDS|ENSG00000107863|bound_else_gene|NA|bound_elsewhere_windowed (ssRNA)
RNA: GGGAGUUCUACAGUCCGACGAUCAGGGUCUGGAUGAUUACAGAGAAGAUGCAAAAUUGUCCUUUAAGCACGUAUCUAGUCUGAAGGGAAUCAAGAUCGCAGACAGCCAAAAGUCAUCAGAAGACUCUGGGUCCAGAAAAGAUUCAACAGAGGAUUGAGCAUCA
B16: ENSG00000107863:be:win_5251|CDS|ENSG00000107863|bound_else_gene|NA|bound_elsewhere_windowed (ssRNA)
RNA: GGGAGUUCUACAGUCCGACGAUCAGAGGCGAAUCCGAAAAACAGGAACCCACAUGGAAAACGAAAAUAGCAGAUCGGUUAAAACUGAGACCCAGAGCCCCUGCGGAUGACAUGUUUGGAGUAGGGAAUCACAAAGUGAAUGCCCAACAGAGGAUUGAGCAUCA
B17: chrX:41141081:41141111:+|CDS|ENSG00000124486|msi1_unk|total|mutant (ssRNA)
RNA: GGGAGUUCUACAGUCCGACGAUCCACUCUUCAUACAGUGAAAAAGUACUUUCUUCCAAUAACCGAAAUGGUUCCACAGUUUUCCGAAAACUUAACUGAUGAAGAACUGAAAAAAGAAGCAAAGAAUGAAGCCAAAAAUGAUGCCAACAGAGGAUUGAGCAUCA
B18: chr4:113336597:113336699:+|CDS|ENSG00000145362|unk|total|mutant (ssRNA)
RNA: GGGAGUUCUACAGUCCGACGAUCACCUAUGCACAGUGAGCUGGUUAAGAAGAUCCCCGGCAACAAAGCUACCUUCAGCCCUACCGUCACUUUGGAACCCCGAAGAAGAAAAUUCCACAAACCAAUUACCAUGACCAUUCCUGUCAACAGAGGAUUGAGCAUCA
B19: chr20:3963869:3963970:-|CDS|ENSG00000101236|unk|total|mutant (ssRNA)
RNA: GGGAGUUCUACAGUCCGACGAUCAAUCUGCCUCUCAACAUAUAUAUUGUGGUUUUUGGUACUGCUAUAUUUGUCUUCAUCCUCCGUUUACUCUUCUGUUGCUACUUGAUCCGGUAACCAAUUUUCAUUCUAUGUUACUUCAAACAACAGAGGAUUGAGCAUCA
B20: chr13:108210031:108210147:-|CDS|ENSG00000174405|unk|total|mutant (ssRNA)
RNA: GGGAGUUCUACAGUCCGACGAUCAUGGUUAAUAAUAAAAAGCCCGGGCAUGAGACUCUGAGAAAGAGGUAUGAGAUUCUCCGCCGUAUUUUUACACCAAUUCCAGGCCGAACCGAAACCGUGCAGAAAACACAAGCUCAUACUCAACAGAGGAUUGAGCAUCA
B21: chr13:38882223:38882324:+|3pUTR|ENSG00000150893|msi1|total|mutant (ssRNA)
RNA: GGGAGUUCUACAGUCCGACGAUCAGAAAAAUAAGGUCAGGAGAAAAAGAAUAAUGCCUACAGAUUAUCCUUCAGAUGCUGGCCCGAAUCCCCUUUGACUUCCCGCCAUAAGCUGGCCACAUUGGACAUCUUGGUCACUGCAGACAACAGAGGAUUGAGCAUCA
B22: chr5:154417748:154417849:+|3pUTR|ENSG00000164574|msi1|FALSE|unique (ssRNA)
RNA: GGGAGUUCUACAGUCCGACGAUCCAGCACCAGCUUUACAGGGCAGUGUUUCAGAUGGCCCUGAGCCCACGGAAAAGGCCAGGUAGACCUCCAAACUAGAAAUGCUGGCUGAUUUGCCCUGAUCCAUGCUUCCAUUUCCCUGUCCAACAGAGGAUUGAGCAUCA

Some of the results follow.

For this assay, the target named is MSI1 full-length (mouse, UniProt Q61474 1-362). Put plainly: nsRBNS (natural sequence RNA bind-n-seq); RBNS binding buffer (assumed for nsRBNS): 25 mM Tris pH 7.5, 150 mM KCl, 3 mM MgCl2, 0.01% Triton X-100, 500 ug/ml BSA, 20 U/ml SUPERase-In, 4 C; UNK is unkempt and MSI1 is Musashi-1; names of the RNAs are library labels; protein concentration not given here; high values mean tight binding.
UniProt Q61474, sequence (Q61474 whole entry): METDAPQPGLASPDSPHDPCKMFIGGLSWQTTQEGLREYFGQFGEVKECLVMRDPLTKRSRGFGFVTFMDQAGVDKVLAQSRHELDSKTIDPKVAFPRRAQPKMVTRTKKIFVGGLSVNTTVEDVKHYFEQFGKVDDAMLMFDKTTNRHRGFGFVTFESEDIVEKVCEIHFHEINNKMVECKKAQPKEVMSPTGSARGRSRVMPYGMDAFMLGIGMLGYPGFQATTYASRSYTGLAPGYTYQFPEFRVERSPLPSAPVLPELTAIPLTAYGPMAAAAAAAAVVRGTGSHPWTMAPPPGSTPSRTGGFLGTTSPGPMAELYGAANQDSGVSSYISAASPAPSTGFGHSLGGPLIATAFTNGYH
With B1, the binding signal was 0.451 enrichment R. Next, B2: 0.413 enrichment R; B3: 0.247 enrichment R; B4: 1.11 enrichment R. Molecule B5 returned a binding signal of 1.12 enrichment R. In the case of B6 it was 0.421 enrichment R. Molecule B7 had a binding signal of 2.29 enrichment R.

In turn, B8 yielded a binding signal of 0.304 enrichment R.

Turning to B9, the binding signal is 2.39 enrichment R.

Consider B10, for which the binding signal was determined as 0.277 enrichment R. Next, B11: 0.527 enrichment R; B12: 0.315 enrichment R. In the case of B13 it was 0.865 enrichment R; in that of B14, 1.25 enrichment R; in that of B15, 0.365 enrichment R. As for B16, the binding signal worked out at 0.537 enrichment R. In the case of B17 it was 0.267 enrichment R; in that of B18, 0.614 enrichment R.

B19 had a binding signal of 0.745 enrichment R. As for B20, the binding signal amounted to 0.569 enrichment R. In the case of B21 it was 0.318 enrichment R; in that of B22, 0.544 enrichment R.
